# In the supplement of paper PMC3334620:
# The full ranking holds about 33,000 sequences; the median of “E-score (-0.5 to 0.5)” is about -0.036, and the highest 2% start at about 0.37. Some of the results follow.
# Biological target: T1, Yer064c (UniProt P40041)
# T1 sequence: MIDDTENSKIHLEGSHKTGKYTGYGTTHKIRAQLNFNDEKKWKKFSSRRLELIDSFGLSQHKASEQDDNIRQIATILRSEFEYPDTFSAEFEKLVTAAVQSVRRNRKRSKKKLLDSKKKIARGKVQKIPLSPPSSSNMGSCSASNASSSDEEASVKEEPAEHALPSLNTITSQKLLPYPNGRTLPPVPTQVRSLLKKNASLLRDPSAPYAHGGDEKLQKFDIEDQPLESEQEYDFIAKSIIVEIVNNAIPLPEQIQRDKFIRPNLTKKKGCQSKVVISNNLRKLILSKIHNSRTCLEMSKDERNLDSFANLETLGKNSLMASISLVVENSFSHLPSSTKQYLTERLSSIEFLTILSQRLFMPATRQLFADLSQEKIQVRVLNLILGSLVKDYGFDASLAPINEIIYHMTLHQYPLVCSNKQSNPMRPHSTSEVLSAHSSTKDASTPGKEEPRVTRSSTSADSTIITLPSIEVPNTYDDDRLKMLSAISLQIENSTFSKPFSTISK
# Assay: PBM E-score (8-mer binding enrichment) (E-score (-0.5 to 0.5)); higher = stronger / more preferred TF binding; most listed sequences are background and not binding sites
# Conditions: protein concentration: 200 nM; construct: GST-full length
# Procedure, shortened: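 Yeast transcription factors carrying a GST tag, as full-length proteins or DNA-binding domains, were produced by PURExpress in vitro transcription/translation. About 100-200 nM protein was applied to universal all-10-mer Agilent arrays, double-stranded by primer extension on fresh or once-stripped slides. Bound protein was detected with fluorescent anti-GST, and scans were normalised with masliner. The Universal PBM Analysis Suite gave each ungapped eight-base word, pooled with its reverse complement, an E-score, a modified Wilcoxon-Mann-Whitney statistic.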
row,Sequence,PBM E-score
1,AACTCGGA,0.0305
2,CATGGTGG,-0.164
3,GCAGACCC,-0.364
4,CGTATTCC,-0.155
5,CGGCAGCC,-0.0567
6,AATCTTAC,0.183
7,AGTCCATA,0.151
8,ACTCGGCT,0.0356
9,GATCCGAC,-0.0318
10,GAGGACAA,-0.195
11,CCCCGCGA,-0.0453
12,CCCTGACA,-0.134
13,ATAGCCCA,0.0203
14,CAATTTGA,0.0752
15,TACAACGA,0.0811
16,CGGAGGTC,-0.14
17,CGAAACCC,-0.21
18,ACACGCTG,-0.18
19,ATAAGCTC,-0.245
20,ACTTCGCT,0.0871
21,CATAGTTA,0.139
22,CTGTCGGC,-0.202
23,AGCGTGGC,-0.00134
24,AATCTATG,0.0755
25,CCAGCTGC,-0.131

row,Sequence,PBM E-score
1,GATTTGAC,0.255
2,TATGGTGA,0.0193
3,CGATCCCG,-0.155
4,CTCCGCCA,-0.0652
5,GAGGGGCC,-0.285
6,AATATACT,0.121
7,AGTAGTAG,0.00559
8,CCTTACAA,-0.221
9,ACTTGCCC,-0.0306
10,GCTCAGCC,-0.0368
11,GGGACCAA,-0.178
12,AAGGATTC,0.0961
13,CAAACTAA,0.0575
14,ACCTTCCC,-0.2
15,CTAGCACC,-0.122
16,AAGTTCAG,-0.0424
17,GACTGGTA,0.225
18,AGCACTTG,-0.248
19,AAACGCAG,-0.00808
20,AGTTAAGA,0.129
21,CGCTGACC,-0.0261
22,GACCATAC,-0.0558
23,GGCGACCC,-0.364
24,ACGTTGGC,-0.144
25,CGTATTGC,-0.194

row,Sequence,PBM E-score
1,CGGGAATA,-0.0781
2,AGCAGAAC,-0.095
3,GGGGTTAC,-0.203
4,CTTGGACC,-0.357
5,AGTCGTGA,0.375
6,CGGGCGAC,-0.0222
7,CTATGTGC,0.00946
8,ACTAGAGA,0.127
9,AGCATGCG,-0.0603
10,CCGGTCTC,-0.253
11,AGTACTCA,0.393
12,CCGGGATA,-0.158
13,CGCCGTCC,-0.0611
14,GGGGGTTA,-0.187
15,GTACCGGA,-0.263
16,CTACTATA,0.0822
17,ACAAGGAA,-0.0172
18,GCGCGCAA,-0.0743
19,AAGTTGGT,0.091
20,ACAATCCC,0.0868
21,CAAGTGTA,0.0392
22,AAGATGGG,-0.0112
23,CGTTCTAA,0.0916
24,TCACCCAA,0.103
25,GCCGTCGA,-0.0942

row,Sequence,PBM E-score
1,GGCTCCCA,-0.115
2,ATTGCCGC,0.0328
3,ATGGAGGG,-0.0793
4,CAACCACC,0.0883
5,AGTCCATG,0.276
6,GCTGATCC,-0.0285
7,ACCTGAAC,-0.0686
8,AGAATAAC,-0.016
9,AAAATATC,0.105
10,CGGTACAA,-0.19
11,AGAAGCCT,-0.201
12,CGGCCCGC,-0.138
13,CGGTAGAG,-0.118
14,AGGCTGGC,-0.145
15,AGGCCTTG,-0.117
16,AAACAACG,-0.108
17,GAGGTCGA,-0.0536
18,GTGGATAA,-0.144
19,AACAACCT,-0.071
20,AGGGTATC,-0.18
21,AACACGTC,-0.178
22,GGTAGAAA,-0.226
23,GCATCTCC,-0.281
24,CGCCAACC,-0.206
25,AGCGAAAC,0.0885

row,Sequence,PBM E-score
1,ACACTCTC,0.0479
2,CTTTTTCC,-0.00626
3,CCGCCACA,-0.232
4,AGATATAT,-0.0196
5,ATTGATCA,0.203
6,AGTGACCC,-0.0592
7,CGCGATTA,0.23
8,CCCAAACA,0.0193
9,AATATCGC,-0.11
10,CCACGCGC,-0.161
11,CCGTTGTA,-0.0298
12,GCGTGTAC,-0.00824
13,GAGTTTCA,0.219
14,GATTTCGC,0.15
15,AGTACGTC,0.0614
16,CACGCAGC,-0.179
17,ATAGATCG,-0.0521
18,AATACTTG,-0.148
19,CTCTAAAA,0.159
20,CAAGTTAG,0.173
21,GCAGCTAC,-0.0944
22,CGCCTAAA,-0.00255
23,AGGTCAGC,-0.0836
24,CCCATGCG,-0.224
25,TATATCAA,0.0841

row,Sequence,PBM E-score
1,AAGATTTA,0.136
2,CAATGTAA,-0.13
3,CAAGTGAG,0.0765
4,AATAGAGT,0.0996
5,TAAAACGA,0.146
6,ATGTACCC,-0.101
7,ACAACCAG,0.032
8,AGCAGGGA,-0.0138
9,AAAACCGA,-0.00557
10,CCTGAAGA,0.0145
11,GAACGACC,0.0228
12,TCATGACA,0.248
13,ATTAATCA,0.441
14,TCCCGTCA,-0.0314
15,CGCGATGA,0.205
16,AATCGAGG,-0.00165
17,AATGTCTG,-0.144
18,CTCCACAG,-0.0508
19,CAGCAGAA,-0.111
20,CCTGCGAA,-0.056
21,GCGTCGAA,-0.138
22,CCCATCCC,-0.0882
23,CTAACTAG,0.184
24,AACATGAG,0.23
25,ATGGCAAA,-0.101

row,Sequence,PBM E-score
1,AAACATCC,-0.00356
2,CTACACGA,0.148
3,AATGTATC,0.0947
4,AGAAGAAC,-0.146
5,CGCATGAA,-0.00295
6,AGGCACAT,-0.117
7,CACACACA,0.0437
8,ATGTAGCG,-0.143
9,ACCTCTCG,-0.306
10,AGGCAGTG,-0.0727
11,ATAGAGGA,-0.0557
12,ACCGGCCA,-0.214
13,GAGATCCC,-0.174
14,AGGCCGCC,-0.165
15,ACCTCAGA,-0.112
16,GAGATAAA,-0.0124
17,AATGGATC,-0.0133
18,AGTCACAT,0.469
19,TGTGGTAA,-0.0274
20,CGTTAAGA,0.0746
21,TAATCGGA,0.163
22,ATCCTCGA,0.0481
